Laboratory results published in PubChem BioAssay AID504832 (National Center for Advancing Translational Sciences (NCATS), 2011).
Where “and” joins values, the source holds several entries; their conditions need not be identical. Identical values can stand only once. Hit rate of the full screen: of about 310,000 compounds, about 18,000 (5.8%) were called active. Inconclusive means that the source gave no clear call. Such entries were picked first, then a sample of the others. The call rests on the fitted dose curve; in most records, active means well fitted inhibition curve with a large enough effect; inconclusive means small, poorly fitted or top-dose-only effect, or another doubt; inactive means no such curve, though single readings can be large or run the other way. Potencies of inconclusive entries are doubtful fits and often do not repeat.

test: Primary qHTS for delayed death inhibitors of the malarial parasite plastid, 48 hour incubation; conditions: P. falciparum luciferase growth in erythrocytes; series mostly up to 28.7 µM; activity change, negative = inhibition: at the top concentration
Procedure, shortened: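 Luciferase-expressing P. falciparum in infected erythrocytes (2% hematocrit, 0.1% parasitemia final) in RPMI 1640/0.5% Albumax were exposed to compound for 48 hours at 37 C, 5% CO2; growth read as luminescence.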
On the % scale 0 is the no-effect control and ±100 the full control effect; potency means the concentration at half of the fitted maximal effect; tags describe the fitted curve by direction and shape.

Structure (SMILES) | activity change, negative = inhibition | Potency
O=c1[nH]cnc2scc(C3COc4ccccc4O3)c12 (stereo not drawn) | inactive: 53.7% | 
NS(=O)(=O)c1ccc(CNC(=O)/C=C/c2ccccc2[N+](=O)[O-])cc1 |  | inconclusive: 0.0023 µM [inhibitor, full curve, poor fit]
O=C(Nc1ccccc1C(=O)N/N=C/c1ccncc1)c1ccccc1 | inactive: 423% | 
CC(Sc1nnnn1-c1ccc(O)cc1)C(=O)NC1CCCCC1C (stereo not drawn) |  | inconclusive: 13.1 µM [inhibitor, single point]
CC(=O)c1cccc(NS(=O)(=O)c2ccc(N/C=C/C(=O)c3ccc(F)cc3)cc2)c1 |  | inconclusive: 10.4 µM [inhibitor, single point]
Cc1ccc(OCc2cc(C(=O)N(C)CCc3nc4ccccc4[nH]3)no2)cc1C |  | inconclusive: 13.1 µM [inhibitor, partial curve, poor fit]
Cc1ccc(S(=O)(=O)c2nc(S(C)(=O)=O)sc2N(C)C)cc1 | inactive: -24.8% | 
OC(C#CCN1CCCC1)(c1ccccc1)c1ccccc1 |  | inconclusive: 15.1 µM [inhibitor, single point] and inconclusive: 18.5 µM [inhibitor, single point]
O=C(CNC(=O)Cc1ccccc1)NCC(=O)N1CCCCC1 | inactive: 12.4% | 
CCOC(=O)N1CCN(C(=O)c2ccccc2N(Cc2ccccc2)S(=O)(=O)c2ccc(OC)cc2)CC1 |  | inconclusive: 1.85 µM [inhibitor, full curve]
O=C(CNc1ccc2ccccc2c1)N/N=C/c1ccc(OC(=O)/C=C/c2ccco2)cc1 |  | active: 8.28 µM
Cc1cc(Cl)c(C(=O)Nc2cccc(C(F)(F)F)c2)c(C)n1 | inactive: -5.64% | 
CCOc1ccc2nc(NC(=O)CN3CCC(n4nnc5cc(F)ccc54)CC3)sc2c1 |  | inconclusive: 11.7 µM [inhibitor, single point]
CCCCc1cc(-c2n[nH]c(=S)o2)c2ccccc2n1 |  | inconclusive: 18.5 µM [inhibitor, single point]
O=C(CCn1cncn1)N1CCCC(N2CCN(c3ccc(F)cc3)CC2)C1 (stereo not drawn) |  | inconclusive: 3.29 µM [inhibitor, partial curve]
CO/N=C/c1ccc(OC)c(Oc2nc(OC)cc(OC)n2)c1 | inactive: 1.91% | 
Cc1nnc(SCCn2c(N3CCN(Cc4ccccc4)CC3)nc3c2c(=O)[nH]c(=O)n3C)s1 |  | inconclusive: 18.5 µM [inhibitor, single point]
CCCCN1C(=O)C(=O)N(CC(=O)c2cc(C)n(-c3cc(C)on3)c2C)C1=O |  | active: 10.4 µM
CCCC(=O)Nc1ccc(Cl)c(NC(=O)CC)c1 | inactive: 15.5% | 
CC(C)NC(=O)NC(=O)COc1c(F)c(F)cc(F)c1F | inactive: 5.49% | 
O=C1Cc2cc(S(=O)(=O)Nc3ccccc3Cl)cc3c2N1CCC3 |  | inconclusive: 11.7 µM [inhibitor, single point]
CCN1CCN(c2cc(-c3ccccc3)nc3cc(-c4cccc(F)c4)nn23)CC1 |  | inconclusive: 10.4 µM [inhibitor, single point]
OC(CNCCNc1ncccc1C(F)(F)F)COc1ccc(F)cc1 (stereo not drawn) |  | inconclusive: 14.7 µM [inhibitor, partial curve]

Structure (SMILES) | activity change, negative = inhibition | Potency
Cc1cc(-c2ccccc2)nc(N/N=C/c2ccc(O)cc2)n1 |  | inconclusive: 9.28 µM [inhibitor, single point]
COc1ccc(CNC(=O)C2CCCN(S(=O)(=O)c3ccc4c(c3)C(C)(C)C(=O)N4C)C2)cc1 (stereo not drawn) |  | inconclusive: 0.522 µM [inhibitor, full curve, poor fit]
CC(C)OC(=O)CSc1nnc2n1C(C)(C)Cc1ccccc1-2 | inactive: -6.09% | 
FC(F)(F)c1ccc(/C=N/NC(=S)NC2CCCCC2)cc1 |  | inconclusive: 16.5 µM [inhibitor, single point]
COc1ccc2c(c1)[nH]c1c(=O)n(Cc3ccco3)cnc12 | inactive: 26.5% | 
CC1CC(C)CN(CCCNC(=O)c2csc3c2CCCCC3)C1 (stereo not drawn) |  | inconclusive: 9.28 µM [inhibitor, single point]
CC(C)Cn1c(=O)[nH]c(=O)c2c(C(F)(F)F)cc(-c3ccccc3)nc21 |  | inconclusive: 9.28 µM [inhibitor, partial curve]
Cc1ccc(OCc2cc(C(=O)NCc3cc(F)ccc3C)no2)cn1 | inactive: -22.6% | 
Cc1cccc(/C=C2\Sc3ccc(C(=O)NCC4CCCO4)cc3N(C)C2=O)c1 (stereo not drawn) |  | inconclusive: 8.28 µM [inhibitor, partial curve]
CCC(=NCc1ccc(Cl)c(Cl)c1)c1nc(-c2ccco2)oc1O |  | inconclusive: 18.5 µM [inhibitor, single point]
Cc1ncc(CO)c(/C=N/Nc2cccc(Cl)n2)c1O |  | inconclusive: 9.28 µM [inhibitor, partial curve]
O=C(N/N=C/c1cc(Cl)cc([N+](=O)[O-])c1O)c1ccc2c(c1)OCO2 |  | inconclusive: 0.0093 µM [inhibitor, full curve]
CNc1snc(C)c1C(=O)OC(C)C(=O)Nc1cccc(OC)c1 (stereo not drawn) |  | inconclusive: 18.5 µM [inhibitor, single point]
CCOc1ccccc1CNC(=O)CCn1ccc2cc(S(=O)(=O)N3CCCCC3)ccc21 |  | inconclusive: 13.1 µM [inhibitor, partial curve]
CN(C)S(=O)(=O)c1ccc(N2CCCC2)c(C(=O)NC(c2ccccc2)c2ccccc2)c1 |  | active: 0.828 µM
O=C(CN(C(=O)CSc1nc2ccccc2o1)c1cccc(F)c1)NC1CCCCC1 |  | inconclusive: 18.5 µM [inhibitor, single point]
Cc1cc(C)n(-c2ccc(C(=O)NCCCN3CCOCC3)cc2)n1 | inactive: 5.54% | 
CCOC(=O)C1=C(C)N=c2s/c(=C\c3ccc(OCC(=O)O)cc3)c(=O)n2C1c1ccc(OC(C)C)cc1 (stereo not drawn) |  | inconclusive: 2.62 µM [inhibitor, full curve]
CC(C)(C)c1ccc(CSc2nnc(-c3ccccn3)n2Cc2ccco2)cc1 |  | active: 7.38 µM
COC(=O)Cn1cnc2c(nnn2Cc2ccc(Cl)cc2)c1=O |  | inconclusive: 0.0657 µM [inhibitor, full curve, poor fit]
Cn1c(=O)n(CCc2ccccc2)c(=O)c2c1nc1n2CCCN1Cc1ccccc1 |  | inconclusive: 4.15 µM [inhibitor, partial curve]
CC1CC(C)CN(S(=O)(=O)c2ccc(NC(=O)CCN3C(=O)C4CC=CCC4C3=O)cc2)C1 (stereo not drawn) |  | inconclusive: 14.7 µM [inhibitor, single point]
Cc1ccccc1-c1cc(C(=O)NCc2ccc3c(c2)OCO3)n(CC2CC(c3cccnc3)=NO2)n1 (stereo not drawn) |  | inconclusive: 13.1 µM [inhibitor, single point]

Structure (SMILES) | activity change, negative = inhibition | Potency
Cc1cccc(Nc2nnc(SC(C)C(=O)NC3CC3)s2)c1 (stereo not drawn) |  | active: 13.1 µM
COc1ccc(-c2cccc(C(=O)Nc3ccc(C)cc3)c2)cc1 | inactive: 5.85% | 
CC(Oc1ccccc1)C(=O)N=Nc1c(O)[nH]c2ccc([N+](=O)[O-])cc12 (stereo not drawn) | inactive: -5.16% | 
Cc1nn(C(C)C(=O)Nc2ccccc2Cl)c(=O)c2nn(-c3ccccc3)c(C)c12 (stereo not drawn) | inactive: -21.5% | 
COc1cccc2sc(=NC(=O)CS(=O)(=O)c3ccc(F)cc3)n(C)c12 | inactive: 26.9% | 
C#CCCOC(=O)N1C2=NC(C(=O)OC)=C(C(=O)OC)[C@@H]3N(C)c4ccccc4[C@]23C[C@H]1C(=O)OC |  | inconclusive: 11.7 µM [inhibitor, single point]
CCN(CC)c1ccc(/C=C2/SC(=O)N(C(C)C)C2=O)o1 |  | inconclusive: 18.5 µM [inhibitor, single point]
O=C(CSc1nc(-c2ccco2)cc(C(F)(F)F)n1)NCCc1ccccc1 |  | inconclusive: 18.5 µM [inhibitor, single point]
COc1cc(NC(=O)c2cccc(C)c2)c(OC)cc1NC(=O)CN1CCCCC1 | inactive: -25.2% | 
CS(=O)(=O)N(CC(=O)NCCSc1ccc(Cl)cc1)c1ccc2c(c1)OCO2 |  | inconclusive: 10.4 µM [inhibitor, partial curve]
Cc1onc(-c2ccccc2Cl)c1C(=O)Nc1nc2c(s1)CCCC2 |  | inconclusive: 0.0657 µM [inhibitor, full curve, poor fit]
CCn1cc(C(=O)N2CC(C)CC(C)C2)c(=O)c2cc(S(=O)(=O)N3CCOCC3)ccc21 (stereo not drawn) |  | inconclusive: 0.586 µM [inhibitor, full curve, poor fit]
COc1ccc([C@H]2CC(=O)C=C(c3ccccc3Oc3ccccc3)C2)cc1 |  | active: 10.4 µM
CCCCn1c(NC(=O)c2ccccc2)c(C#N)c2nc3ccccc3nc21 |  | active: 5.86 µM
CCOC(=O)c1sc(NC(=O)c2cccs2)nc1C | inactive: 280% | 
COc1ccc(NC(=O)c2cc(N3C(=O)C4C5CCC(C5)C4C3=O)ccc2Cl)c(OC)c1 (stereo not drawn) |  | inconclusive: 10.4 µM [inhibitor, partial curve, poor fit]
O=C(O)[C@@H]1[C@H]2C[C@H]3c4[nH]c5ccccc5c4CCN3C[C@@H]2CC[C@@H]1O |  | inconclusive: 16.5 µM [inhibitor, single point]
Cc1cc(OCC(=O)Nc2nccs2)c2c(C)cc(=O)oc2c1 |  | inconclusive: 2.08 µM [inhibitor, full curve]
CC(C)(C)C(=O)NC1CCN(S(C)(=O)=O)CC1 | inactive: -16.8% | 
Cc1ccccc1N1C(=O)C2ON(c3ccccc3)C(c3cccnc3)C2C1=O (stereo not drawn) | inactive: 6.62% | 
O=C(NNC(=S)NC(=O)c1ccc(F)cc1)c1cccnc1 |  | inconclusive: 18.5 µM [inhibitor, single point]
COc1ccc(CCNC(=O)C2CCN(C(=O)c3cccc(Cl)c3)CC2)cc1OC |  | inconclusive: 9.28 µM [inhibitor, partial curve, poor fit]
